Results: PubChem BioAssay AID1030 (National Center for Advancing Translational Sciences (NCATS), 2008)
Hit rate of the full screen: of about 220,000 compounds, about 16,000 (7.3%) were called active. This list was built around the results that the source calls inconclusive (neither active nor inactive); the mix of calls is not that of the screen. The call rests on the fitted dose curve; in most records, active means well fitted inhibition curve with a large enough effect (not every such curve was filed as active); inconclusive means small, poorly fitted or top-dose-only effect, or another doubt; inactive means no such curve, though single readings can be large or run the other way. Potencies of inconclusive entries are left out as doubtful fits.

target: Aldehyde dehydrogenase 1A1 (Homo sapiens) (UniProt P00352); assay: qHTS Assay for Inhibitors of Aldehyde Dehydrogenase 1 (ALDH1A1); settings: Purified ALDH1A1, NADH fluorescence, propionaldehyde substrate; series mostly up to 75.3 µM; activity, negative = inhibition: at the top concentration;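 on activity, negative = inhibition: plate controls were no enzyme wells and a reference inhibitor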
Potency means the concentration at half of the fitted maximal effect; tags describe the fitted curve by direction and shape.

UniProt P00352, sequence (P00352 whole entry, looked up): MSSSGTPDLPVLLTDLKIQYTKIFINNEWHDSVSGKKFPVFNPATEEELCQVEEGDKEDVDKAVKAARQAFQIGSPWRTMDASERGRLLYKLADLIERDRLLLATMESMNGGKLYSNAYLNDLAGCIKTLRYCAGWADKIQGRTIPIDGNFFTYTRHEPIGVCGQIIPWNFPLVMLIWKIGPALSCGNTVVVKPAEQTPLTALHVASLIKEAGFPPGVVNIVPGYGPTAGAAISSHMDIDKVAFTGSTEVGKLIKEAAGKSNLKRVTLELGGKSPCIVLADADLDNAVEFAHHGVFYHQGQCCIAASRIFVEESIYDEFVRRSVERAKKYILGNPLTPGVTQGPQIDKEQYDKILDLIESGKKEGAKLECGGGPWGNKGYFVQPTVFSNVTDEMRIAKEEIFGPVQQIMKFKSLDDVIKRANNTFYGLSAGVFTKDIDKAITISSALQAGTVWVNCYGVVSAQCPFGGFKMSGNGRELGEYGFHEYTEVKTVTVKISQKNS

Compound | activity, negative = inhibition | Potency
C/C(=N/O)c1ccccn1 | inactive: 6.53% | 
O=C1CC(c2ccc(F)cc2)Cc2nc(N3CCc4ccccc43)ncc21 (stereo not given) |  | inconclusive [inhibitor, partial curve]
Oc1ccc(C(c2nnnn2C2CCCCC2)N2CCOCC2)cc1 (stereo not given) | inactive: -16.6% | 
O=C(NCCN1CCN(C(=O)c2cc3ccccc3oc2=O)CC1)c1cc2ccccc2oc1=O |  | inconclusive [inhibitor, single point]
Cc1ccc(N=N/C(=C\O)C(=O)c2ccc(Cl)cc2)cc1 |  | active: 12.6 µM
CCCCCC(=O)Nc1cccc(-c2nc3ncccc3o2)c1 |  | inconclusive [inhibitor, single point]
CCSC(=Nc1ccccc1)Nc1ccccc1 | inactive: -8.72% | 
CC(OC(=O)CNC(=O)c1ccco1)C(=O)N(C)c1ccccc1 (stereo not given) |  | inconclusive [inhibitor, single point]
COc1ccccc1NC(=S)NNC(=O)c1ccc(Cl)cc1Cl |  | inconclusive [inhibitor, single point]
CC(C)CNc1cc(N2CCCC2)ccc1[N+](=O)[O-] |  | inconclusive [inhibitor, partial curve]
CCc1ccc(NC(=S)N2CCCCCCC2)cc1 | inactive: 5.1% | 
COc1cccc(CN(C)CC(=O)Nc2sc3c(c2C#N)CCC3)c1OC |  | active: 25.1 µM
CCOC(=O)c1ccc(NC(=O)CCC(CC)C(=O)O)cc1 (stereo not given) | inactive: 0.353% | 
CCN1/C(=C\c2ccc3cc(C)ccc3[n+]2CC)Sc2cc(C)c(C)cc21 |  | inconclusive [inhibitor, single point]
Nc1ccccc1SC1CC(=O)N(c2ccccc2Cl)C1=O (stereo not given) | inactive: 1.16% | 
O=Cc1ccc(OC2OCCOC2Oc2ccc(C=O)cc2)cc1 (stereo not given) |  | inconclusive [inhibitor, partial curve]
Cc1cc(O)c(C(C)C)cc1Cl | inactive: 0.673% | 
COc1cc(C(=O)OC2CC[C@]3(C)C4CCC5[C@]6(O)CC(O)[C@]7(O)C(CN8CC(C)CCC8[C@]7(C)O)[C@]6(O)C[C@@]53O[C@]24O)cc(OC)c1OC (stereo not given in full) | inactive: 1.86% | 
COc1ccc(CNC(=O)C/C(C)=N/NC(=O)C23CC4CC(CC(C4)C2)C3)cc1 |  | active: 14.1 µM
CC(C)Oc1ccc(C(=O)Nc2ccc(Cl)c(S(=O)(=O)Nc3ccc(Cl)cc3)c2)cc1 | inactive: 2.09% | 
COc1ccccc1N1CCN(C(=O)c2ccc3nc[nH]c3c2)CC1 | inactive: -3.98% | 
CCC(C)C(=O)Nc1ccc(OC)cc1OC (stereo not given) | inactive: 7.91% | 
CCOC(=O)c1ccc(Nc2ncnc3nc[nH]c23)cc1 | inactive: -13.6% | 
CN(C)c1ccc(C2N(C(=O)N3CCOCC3)CCN2S(=O)(=O)c2ccccc2)cc1 (stereo not given) |  | active: 1 µM
CCc1nc(N2CCC3(CC2)OCCO3)c2nnn(Cc3ccccc3)c2n1 |  | inconclusive [inhibitor, single point]
CC(C)C(NC(=O)Cc1ccccc1[N+](=O)[O-])C(C)C | inactive: 12.3% | 
CC(=O)Nc1ccc(S(=O)(=O)NNC(=O)c2cc3c4ccccc4n(C)c3s2)cc1 |  | inconclusive [inhibitor, partial curve]

Compound | activity, negative = inhibition | Potency
CCc1cc2c(CN3CCN(CCO)CC3)cc(=O)oc2cc1O |  | inconclusive [inhibitor, full curve]
O=C(Oc1ccccc1)c1ccccc1OS(=O)(=O)c1ccccc1 | inactive: -12.6% | 
O=c1[nH]c(CN2CCCCC2)nc2ccccc12 | inactive: -3.6% | 
COCCCN(C(=O)Nc1ccc(C)c(C)c1)C(C)c1ccccn1 (stereo not given) | inactive: 0.688% | 
O=C(O)C1C2CCC(O2)C1C(=O)Nc1ccc(O)cc1 (stereo not given) |  | inconclusive [inhibitor, single point]
CC(=O)OCC1OC(C#Cc2ccc(C)cc2C)C=CC1OC(C)=O (stereo not given) |  | inconclusive [inhibitor, single point]
Cc1cc(C(=O)CSc2nnc(Cc3ccccc3)o2)c(C)n1Cc1ccc2c(c1)OCO2 |  | inconclusive [inhibitor, single point]
COc1cc(CNc2ncn[nH]2)ccc1OCC(=O)NC(C)(C)C | inactive: -3% | 
COc1cc(OC)c(CN2CCC(CO)(CCOc3ccccc3)CC2)c(OC)c1 |  | inconclusive [inhibitor, single point]
CC1(C)COCN1S(=O)(=O)c1ccc(C(=O)Nc2nnc(-c3ccc(Cl)s3)o2)cc1 |  | inconclusive [inhibitor, single point]
Cc1ccc(NC(=O)C(NS(=O)(=O)c2cccc3nsnc23)C(C)C)nc1 (stereo not given) | inactive: 15.9% | 
COc1ccc(Cn2c(SC)nc3ccccc32)cc1[N+](=O)[O-] |  | inconclusive [inhibitor, single point]
CSc1ncccc1C(=O)OCn1nnc2ccccc2c1=O |  | inconclusive [inhibitor, single point]
Cc1ccc(S(=O)(=O)n2c3ccc(F)cc3c3nc(C)sc32)cc1 | inactive: -7.14% | 
O=Nc1ccc(NO)cc1 |  | active: 10 µM
COCCCNC(=O)Cc1coc2ccc3ccccc3c12 | inactive: 2.63% | 
O=S(=O)(N/N=C\c1cccn1-c1ccccc1)c1ccc2ccccc2c1 |  | inconclusive [inhibitor, partial curve]
COc1ccc2c(c1)C(NC(C)=O)C(=O)N2CCc1ccccc1 (stereo not given) |  | inconclusive [inhibitor, full curve]
CC(C)N=C(NS(=O)(=O)c1ccccc1)C(Cl)(Cl)Cl | inactive: -4.4% | 
Cc1coc2cc3oc(=O)c(Cc4ccccc4)c(C)c3cc12 |  | inconclusive [inhibitor, partial curve]
O=C(CSCc1ccccc1Br)N/N=C/c1ccccc1C(=O)O |  | inconclusive [inhibitor, full curve]
O=C(CSc1nc2ccccc2[nH]1)NC1CCCc2ccccc21 (stereo not given) | inactive: -3.06% | 
CC(/C=C/c1cccc([N+](=O)[O-])c1)=N/NC(=O)c1cccnc1 |  | inconclusive [inhibitor, single point]
O=C(C(=O)N1CCOCC1)c1cn(CC(=O)N2CCc3ccccc3C2)c2ccccc12 |  | active: 20 µM
N#Cc1nc(-c2ccccc2)oc1NCc1ccco1 |  | inconclusive [inhibitor, partial curve]
OCC(O)C(O)C(O)C(O)C1NCCS1 (stereo not given) | inactive: -1.29% | 
COc1cc(OC)cc(-c2nnc(Sc3ccc(C=O)cc3[N+](=O)[O-])o2)c1 |  | active: 2 µM

Compound | activity, negative = inhibition | Potency
COc1ccc(O)c(-c2[nH]ncc2C(=O)c2ccccc2C)c1 |  | active: 12.6 µM
O=C(COc1cccc(C(F)(F)F)c1)N1CCN(c2ccc(O)cc2)CC1 |  | inconclusive [inhibitor, partial curve]
CCOc1ccccc1C(=O)NN1C(=O)CCC1=O | inactive: -1.28% | 
c1ccc(COc2ccc(OCCN3CCCCC3)cc2)cc1 | inactive: 8.88% | 
Cc1ccc(-c2csc(N(CC3CCCO3)C(=O)c3ccco3)n2)cc1 (stereo not given) |  | inconclusive [inhibitor, single point]
CCCCn1c(CN(C)Cc2ccccc2)nc2c1c(=O)n(C)c(=O)n2C | inactive: -4.35% | 
Cc1ccc(C(=O)N/C(=C\c2cccs2)C(=O)NCc2ccncc2)cc1 |  | inconclusive [inhibitor, single point]
COc1cccc(NC(=S)N/N=C2/CCCCc3ccccc32)c1 |  | inconclusive [inhibitor, single point]
O=C(c1cccc(F)c1)N1CCC2(CC1)CN(C(c1ccccc1)c1ccccc1)C2 |  | inconclusive [inhibitor, single point]
CCOc1ccccc1N1CCN(C(=S)NCc2ccccc2)CC1 |  | inconclusive [inhibitor, single point]
COc1cc(NS(=O)(=O)c2ccc(NC(=S)NC(=O)c3sc4cc(F)ccc4c3Cl)cc2)nc(OC)n1 |  | active: 8.91 µM
CN(C)S(=O)(=O)c1cccc(NC(=O)c2cc(-c3cccs3)nc3ccccc23)c1 |  | inconclusive [inhibitor, single point]
Cc1cc(NC(=O)CSc2nc3ccccc3c(=O)n2-c2ccccc2)no1 |  | inconclusive [inhibitor, partial curve]
COC(=O)c1c(C)[nH]c(-c2csc(N)n2)c1C |  | inconclusive [inhibitor, partial curve]
O=C(COc1ccc(-c2ccccc2)cc1)N1CCN(S(=O)(=O)Cc2ccccc2)CC1 |  | inconclusive [inhibitor, partial curve]
CC(C1CC1)N(C(=O)NC1CCS(=O)(=O)C1)c1ccccc1 (stereo not given) | inactive: 12.6% | 
COC(=O)/C(=C1/Oc2cc(C)oc(=O)c2S1)C(F)(F)F | inactive: -0.27% | 
O=C(CN1CCOCC1)Nc1cc(C(F)(F)F)ccc1Cl | inactive: 14.2% | 
Cc1nn(-c2ncc(C(F)(F)F)cc2Cl)c(=O)n1-c1ccc(F)cc1 | inactive: 12.6% | 
Cn1c(SCc2ccc(C(C)(C)C)cc2)nnc1C1COc2ccccc2O1 (stereo not given) |  | inconclusive [inhibitor, single point]
O=C(CSc1ncccn1)N/N=C/c1ccc(OC2CSC2)cc1 |  | inconclusive [inhibitor, single point]
CC(C)NC(=O)CSCc1c(Cl)cccc1Cl |  | inconclusive [inhibitor, single point]
CN(CCO)CCOCCOc1cccc2ccccc12 |  | active: 14.1 µM
COc1ccc(NCc2nnc(SCC(=O)N3CCCc4ccccc43)o2)cc1 |  | inconclusive [inhibitor, single point]
COc1ccc(C)cc1NC(=O)C(CCS(C)(=O)=O)NC(C)=O (stereo not given) | inactive: -1.74% | 
O=C(N/N=C/c1ccc2cccc(OCc3ccccc3)c2n1)c1ccc(Br)cc1 |  | inconclusive [inhibitor, partial curve]
